# ChEMBL document CHEMBL4888484, “Replenishing the malaria drug discovery pipeline: Screening and hit evaluation of the MMV Hit Generation Library 1 (HGL1) against asexual blood stage Plasmodium falciparum ,using a nano luciferase reporter read-out” (2022)
# The campaign covered roughly 150,000 compounds. About 540 (0.36%) showed an effect of 50% or more. Some of the results follow.
# System: Plasmodium falciparum
# Assay: Primary screen in NF54 nanoGlo assay, in single point, at 2uM, 72h; a lower Z score goes with more inhibition
# Assay type: functional, Erythrocyte
# Conditions: timepoint 72 hour
SMILES,% Inhibition [%],Z score
O=C(c1cnn2c1CCC2)N1CCN2CCOc3cccc1c32,-7,0.97
CCc1nc(NC(=O)NCc2cn(C)cn2)sc1C(C)(C)C,-11,1.52
COC1CCCC1OC(=O)c1ccc2c(c1)N(C)CC2 (stereo not given),14,-1.53
O=S(=O)(c1cccc2nonc12)n1cccn1,-10,1.15
CN(C)CCOc1cc(C(=O)Nc2cccc3[nH]ccc23)ccn1,-7,0.92
CCCNc1ncc(CN(C)Cc2nnc(C)o2)cn1,10,-1.32
CC(C)c1noc(C(C)NCC2CCCn3ccnc32)n1 (stereo not given),-1,0.24
O=C(CNc1ccccc1)Nc1nc(-c2ccc(Cl)cc2)cc(-c2ccc(Cl)cc2)n1,-3,0.51
COc1cc(NC(=O)Nc2cc(OC)c3c(c2)OCO3)cc2c1OCO2,18,-2.28
Cc1cc(F)ccc1N1CCC[C@H](Nc2ncccn2)C1=O,-5,0.63
COc1ccc(C2=NO[C@@H](CN(Cc3cccc(Cl)c3)C(=O)c3ccccc3F)C2)cc1,-10,0.97
COc1ccc(C(=O)N2CC[C@H](N)C2)cc1-c1ccccc1,-5,0.69
CCN(C)C(=O)c1ccc(-c2ccnc3c2ccn3C)nc1,0,-0.03
CCn1cncc1S(=O)(=O)N(C)C1(C)CCCC1,-10,1.01
CCC(C)OCC(=O)N1CC(=O)NC(C)C1 (stereo not given),1,-0.17
NS(=O)(=O)c1ccc(CCNC(=O)C(Cl)(Cl)Cl)cc1,9,-1.06
C(#CCN1CCN(CC#CCOC(c2ccccc2)c2ccccc2)CC1)COC(c1ccccc1)c1ccccc1,1,-0.13
COc1ccc(NC(=O)c2ccc(NC(=O)c3cc(S(=O)(=O)Nc4ccccc4OC)ccc3C)cc2)cc1,-3,0.36
C[C@H]1Cc2ccccc2N1C(=O)C1CCC(=O)CC1,2,-0.2
COc1ccc(S(=O)(=O)N2CCC3(CC2)Nc2ccc(Cl)cc2-n2cccc23)cc1,-12,1.59
CC(C)c1nccc(NCCc2cc[nH]n2)n1,-5,0.63
Cc1nnc2n1C[C@@H](NCc1csc(-c3ccccn3)n1)CC2,-3,0.53

SMILES,% Inhibition [%],Z score
CN(C)c1ccc(C(=O)N2CCN(c3ncccn3)CC2)cn1,-7,1.33
CCCN(CCc1c[nH]c2ccc(NC(=O)CCC3CCCC3)cc12)CC1CC1,5,-0.79
CC1CN(Cc2ccccc2)CC1NC(=O)NCc1cnn(C)c1 (stereo not given),1,-0.18
O=C(c1ccsc1)N1C[C@@H]2C[C@H](NS(=O)(=O)c3ccccc3)[C@H]1C2,35,-3.97
CC(=O)c1ccc(CNC(=O)c2ccoc2)nc1C,-12,2.1
CCS(=O)(=O)NCCCNc1c(Cl)cccc1C#N,5,-0.54
CN1CCOC(C(=O)NC(CO)c2ccc(Cl)cc2C(F)(F)F)C1 (stereo not given),-4,0.49
Fc1cccc(COc2nc3cc4c(cc3cc2CNCCn2ccnc2)OCO4)c1,14,-2.59
Cc1cccc(NC2CCN(C(=O)NC3CC3)CC2)n1,-10,1.58
Cn1cc(C(=O)NCC2CCN(Cc3nc4c(F)cccc4[nH]3)CC2)cn1,-15,2.17
Cc1nc(N2CCN(C/C=C/c3ccccc3)CC2)cc([C@H]2C[C@H](N)C2)n1,3,-0.55
COc1ccccc1Oc1ccc(N[C@H]2CCN(C)C2=O)cc1F,-7,1.25
CCn1c(-c2cc(NC(=O)CCc3ccc(OC)cc3)[nH]n2)cc2c(OC)cccc21,-3,0.32
O=C(NCCc1nc(-c2ccc(Cl)cc2)n[nH]1)C1CCC1c1ccc(F)cc1 (stereo not given),-14,1.82
Cc1ccc(-c2cc(-c3c4ccccc4cc4ccccc34)c(C#N)c(N)c2C#N)cc1,-27,3.21
COCCc1nc([C@@H]2CCCO2)n(-c2ccc(C(=O)O)cc2)n1,7,-1.33
Cn1cccc1-c1noc([C@H]2CCN(S(=O)(=O)c3ccccc3)C2)n1,-17,2.29
CC[C@H](C)NC(=O)CCN(CCCN1CCOCC1)c1nc(-c2ccc(F)cc2)nc2ccccc12,-11,1.4
O=C(CCN1CCN(c2ccccc2)CC1)N1CC[C@H](O)C1,10,-1.14
OCCOC1CCCN(c2ncnc3c2ncn3CC(CO)C2CCOC2)C1 (stereo not given),-9,1.23
CC(C)S(=O)(=O)CCNC(=O)N1CCC(O)(Cc2ccccc2F)CC1,-3,0.46
Cc1cccc2[nH]c([C@@H]3CCCN3C(=O)COc3cccnc3)nc12,6,-0.84

SMILES,% Inhibition [%],Z score
Cn1cnc2c3c(ccc21)N(CC(=O)Nc1nccs1)CCC3,-6,0.66
COc1c(Cl)cccc1NC(=O)N1CCC[C@@H]1CN1CCCC1,-1,0.28
C=C1CCC(NC(=O)[C@H]2CCOC2)CC1,13,-2.29
Cc1cc(C(=O)NCCN2Cc3cc(F)ccc3OCC2=O)c(C)o1,-19,2.49
C#Cc1cccc(NCc2ccc(NC(=O)OC(C)(C)C)nn2)c1,-2,0.42
CC(C)Cc1cc(CN2CCN(Cc3ccsc3)[C@@H](CCO)C2)n[nH]1,-10,0.89
CCOC(=O)c1cnc(-c2ccc(OC)cc2)nc1N(CC)CC,1,-0.12
COCCN1C[C@H](NC(=O)C2(C#N)CCOCC2)[C@@H](c2ccccc2)C1,-7,1.28
Cc1cc(C)n(CCCNc2nccnc2C#N)n1,-13,2.34
Cn1c2c(c(=O)n(C)c1=O)[C@H](c1ccc(Cl)cc1)NC(O)=N2,11,-1.34
CCC(C)NC(=O)NC1CCN(c2cc(C)cc(C)c2)C1=O (stereo not given),-10,1.5
CN1CCN(CCc2cccc(NC(=O)C3CC3c3ccc4ccccc4c3)c2)CC1 (stereo not given),5,-0.69
COc1ccccc1-c1c(C)nn2c(C(F)(F)F)cc(-c3cccs3)nc12,-8,1.05
CCOC(=O)c1nc(C(=O)OCC)nc(C(=O)OCC)n1,-6,1.24
CCOc1ccc([C@@H]2CC(c3ccccc3Cl)=NN2C(=O)CN2CCCCC2)cc1,-19,2.72
CC1(C)C[C@@H](c2cc(-c3ccc[nH]3)nc(N)c2C#N)CCO1,-4,0.87
C[C@@H](CC(=O)N1CCc2[nH]c3c(Cl)cccc3c2C1)N1CCOCC1,9,-1.63
CCN1CCC[C@@H]1CNC(=O)c1ccoc1C,-6,1.14
CCc1cc([C@@H]2CCCN2C(=O)Nc2cc(C)cc(C)c2)on1,-8,1.13
Cc1nc(Cn2nnnc2C2CCCC2)sc1C,1,-0.19
COc1ccc2c(/C=C/c3cc[n+](C)cc3)cn(Cc3ccccc3)c2c1,68,-6.36
Cc1ccc(Cn2ccc(NC(=O)c3cc(C(C)C)on3)n2)cc1,-11,1.26

SMILES,% Inhibition [%],Z score
COc1ccc(C2=CCN(C(=O)CCn3ccc4ccccc43)C2)cc1,-10,1.32
CC(=O)Nc1nc(C(=O)NCc2ccc(C)n2C)cs1,-1,0.16
C=C(C)CN1CCN(CCCn2ccnc2)CC1,-5,0.45
CC(NC(=O)NC1CCCCc2cc(Br)ccc21)c1ccn(C)n1 (stereo not given),6,-1.01
CC1CC2CCCCC2N1c1ncnc2c1ncn2CC1(O)CCOC1 (stereo not given),-17,3.38
O=C1C[C@H](c2ccc(OCc3ccc(Cl)cc3)cc2)c2cnn(-c3nc4ccccc4s3)c2N1,-10,1.64
CC[C@H](Nc1nc(COC)nc2c1cnn2C)c1ccnn1C,-10,0.99
CN1CCC(N2CCC[C@H]2c2nc(-c3ccc(F)cn3)no2)CC1,15,-1.76
Cc1cc(C(=O)Nc2cccc(-c3nc4ccccc4s3)c2)nn1C,-9,1.28
CNS(=O)(=O)Cc1ccccc1CNC(=O)c1ccc2c(c1)C(=O)N(Cc1ccccc1)C2=O,-8,1.01
CCOc1ncccc1C(=O)N1CC[C@H](n2cnc3ccccc32)C1,-17,2.21
CN(CCn1cnnc1)C(=O)CCn1ccc2cc(Cl)ccc21,-8,0.74
O=C(c1ccc(=O)n(CCN2CCOCC2)c1)N1CCC(Cc2ccccc2)CC1,6,-0.91
O=S1(=O)N=C(NC[C@@H](O)Cc2ccccc2)c2ccccc21,39,-5.57
CCN(CCC#N)C(=O)COc1cccc(F)c1C#N,-10,1.35
CCc1nc(-c2cccc(NC(=O)c3cccc(Cl)c3)c2)no1,-23,4.01
CC1CCN(C(=O)c2cc3nc(-c4ccco4)cc(C(F)(F)F)n3n2)C(C)C1 (stereo not given),-14,2.24
CCN1C[C@@H](CN(C)Cc2nc(-c3ccsc3)oc2C)CC1=O,-16,2.06
Cc1ccc(CCNC(=O)[C@@H]2CCCN2C(=O)C2CCCCC2)o1,-18,2.29
